Publication PMC10668032
The list shows a part of the results. At the low end of the ranking, values are background and their order means little.

The sequences below were run against SIX1 homeodomain (reference allele) (UniProt Q15475) (assay: universal protein binding microarray). Details: Universal all-10-mer PBM (8x60K, AMADID 030236), 300 nM GST-tagged protein, Alexa Fluor 488 anti-GST; buffer, salt, pH and temperature not stated; high values mean tight binding; most listed sequences are background and not binding sites; double strand, one strand shown.

Sequence | binding signal [E-score]
AGACCCGA | 0.196
GCATCTCC | -0.0278
AAGGAGGC | -0.158
AGGTTATG | -0.0404
GGAAGTAA | -0.077
AGTTGCCA | -0.113
AGTCGGAA | -0.128
AGAACGTG | -0.225
GCGGTGCA | -0.136
GCGTTATA | 0.0795
ACAATAGC | -0.0366
CTACGATC | 0.233
ATATAGGC | 0.123
ACAGGCTA | 0.127
CTATCGCA | 0.186
ACGTGACT | -0.158
ATCCGCCC | 0.373
AGTCGGAC | -0.315
ACTTTAAC | -0.207
CGTTTTCC | -0.242
TAACCTCA | -0.0879
CCAAAGTA | -0.0318

Sequence | binding signal [E-score]
ACATGAGC | 0.00468
CCTGCTCC | -0.0184
CGATCCTA | 0.299
CCTTAGTA | -0.0275
GTTCATTA | 0.0318
GAGTAGCA | -0.0232
ATTACATG | 0.124
AAGGCGCT | -0.198
AGCGTCGA | -0.1
GAGGCTAA | -0.228
AAGATAGG | 0.0472
TATCGGCA | 0.244
AGAATGCC | -0.146
CTTTCCTC | -0.263
CCACAGTC | -0.193
GAACTTTA | -0.245
CTACGTAA | -0.126
AGTTGAGA | 0.00191
CCGAGATA | 0.287
GCAAGCCA | -0.103
TGTGACAA | -0.162
ACGAAACG | -0.149

Sequence | binding signal [E-score]
AGGCATCA | 0.0478
CCAACACC | 0.291
AGACAACA | -0.172
GTACTATA | 0.165
ACACTCGT | -0.0555
ACCTTGCG | -0.0646
ACAGTACC | -0.105
CTATCAGA | 0.271
ACGCACCC | -0.0669
CCACACAC | 0.105
CTAACAAA | -0.136
ATCCGGAA | 0.295
GTCACAAA | -0.202
GAACGATC | 0.236
CCCGAACG | -0.0842
ATGACCAA | 0.0234
CATCTTGG | -0.0813
ACCGAGAA | 0.00744
AGACGGCA | 0.197
ACTACATA | -0.104
CTATGGTC | -0.0624
CCGAGGAG | 0.134

Sequence | binding signal [E-score]
GAGAATCC | 0.0755
AGAAAACA | -0.157
AGAGATCG | 0.255
GACCTCAC | -0.032
CGAGTTCC | -0.101
ACTATGTA | -0.0247
AATCGTCG | -0.17
GTTTCGTA | 0.124
GACATCGC | -0.233
CCATCGCA | -0.177
GTTATTAA | -0.0714
CCCCCGTA | 0.189
CGGACTGC | -0.211
CTTACGAC | -0.19
AAGATTTG | -0.271
CCGCTCCG | 0.00741
CCATTGCC | -0.172
CTATTAGC | 0.0693
GCATAGAC | -0.033
ATAATTAA | 0.0287
ATAGTATC | 0.426
TCGACCGA | -0.034

Sequence | binding signal [E-score]
CTATCATC | 0.34
AGGTAGGG | -0.0104
CCTGTCCA | -0.215
CAGCTCAG | -0.0188
ACCCTAGT | -0.0472
GGGCACAC | 0.136
GCCGTCTA | 0.132
TATTCTAA | 0.13
CGCGATTA | 0.0604
ATACCGAA | 0.329
CGGTATAG | 0.216
CAGTAAGG | -0.107
CATGCAGG | -0.0642
ACCCGCCG | 0.212
GAGGATCA | 0.369
CAAAGGGG | 0.124
ATCACATC | 0.284
TCTTAACA | -0.11
AAATAGAC | 0.139
ATTAGGGA | 0.0337
TATCGCAA | 0.33
